In the RNAGym collection of RNA variant scans (doi:10.7554/elife.90254):
The source gives no read counts; variants with many changes may rest on few reads.

B1: LINE1-mini (parent)
chain: GGCAGAGCUCAACACAGCGUGGCAAAGUGGCUGUGGCUAGACUGCC

Variants of: B1
Assay: self-cleavage, relative activity (ratio to wild type); higher = more cleavage; in vitro, sequencing; the parent is a self-cleaving ribozyme

Variant	self-cleavage
C10G A12U C37U	0.02
C10G A12U G30A	0.05
C10G A14C A16C G21A U43G G44A	0.02
C10G A14C G17C C42U	0.02
C10G A14C G30U	0.02
C10G A14G A16U G17A C23G U34G	0.01
C10G A14G A41U C42U	0.02
C10G A14G G19U	0.02
C10G A14G G27U G44A C45A	0.02
C10G A14G G33U G35A	0.02
C10G A14G U20G G29U	0.03
C10G A14G U28C C31U C45U	0.01
C10G A14U C15A	0.01
C10G A14U C18A	0
C10G A14U C18U	0.03
C10G A14U C31A	0
C10G A14U C37G	0.01
C10G A14U G17U U38A A39U	0.01
C10G A14U G21C G40C C42G C45U	0.01
C10G A14U G21U	0.03
C10G A14U U20G G33A C37A	0.02
C10G A16C A24U G36C U43C	0
C10G A16C C42A	0.01
C10G A16C G27A G35A	0.02

Variant	self-cleavage
C10G A16C G30U	0.03
C10G A16C G36A	0.04
C10G A16G A24C C31A	0.02
C10G A16G G35C C45A C46U	0.01
C10G A16U G19A A41G	0.02
C10G A16U G36C	0.03
C10G A24C C31A G35C G40C U43C	0
C10G A24C U32A	0.05
C10G A24G C42G U43C	0.01
C10G A24G G36A A41G	0.01
C10G A24U A26C	0.14
C10G A24U A39G	0.03
C10G A24U G30U U32C	0.01
C10G A25C U28C C31G	0.05
C10G A25C U32A	0.06
C10G A25C U43A	0.01
C10G A25G A26U U43A C45U	0.01
C10G A25G G29U G33U	0.01
C10G A25G U28C	0.05
C10G A25U A39U	0.17
C10G A25U C31A	0.02
C10G A26C G33U	0
C10G A26C G40C	0.01
C10G A26C G44A	0.02

Variant	self-cleavage
C10G A26C U28G	0.13
C10G A26G C37U C42G	0
C10G A26G G29C U38C	0.01
C10G A26U A39U	0.33
C10G A26U G33U G44U	0.01
C10G A26U G36U	0.02
C10G A39G C42A	0.05
C10G C13A A14C A16C	0.02
C10G C13A A26U	0.03
C10G C13A C23A G27C C31A	0.08
C10G C13A G21U G40A	0.01
C10G C13A G22A	0.02
C10G C13A G33C	0.03
C10G C13A U20C A41C	0
C10G C13A U32G	0.01
C10G C13A U38C C42A	0.01
C10G C13G C15U U20A	0.01
C10G C13G G21C C23U	0.02
C10G C13U A16U G19U C46U	0.02
C10G C13U A24C	0.03
C10G C13U A41G C42U C46U	0
C10G C13U C18U U20G C23U A25U G30C C46U	0.02
C10G C13U C23U	0.05
C10G C13U G22A	0.04

Variant	self-cleavage
C10G C13U G33U C37G	0.03
C10G C13U U34G G40C G44U C46U	0
C10G C13U U38A G44C	0
C10G C15A A24C U32G	0.01
C10G C15A A24G	0.02
C10G C15A C18U A26C C46A	0.02
C10G C15A C31G	0
C10G C15A G17A G21U A26G G36U G40A C42A	0
C10G C15A G17C A39G G40C	0
C10G C15A G27C U28G	0.04
C10G C15A U28C C45A	0.01
C10G C15G A24C	0.01
C10G C15G G21C	0.02
C10G C15G G22C	0.02
C10G C15G U20A G21A	0.01
C10G C15U C18A G30C A39U	0.03
C10G C15U C18U	0.11
C10G C15U C23G G36A	0.01
C10G C15U G17A A24U	0.02
C10G C15U G17A U20C C37U	0.01
C10G C15U G19U	0.16
C10G C15U G22U A24C G27U	0.06
C10G C15U G35U A41C	0.03
C10G C18A C23A C45U	0.32

Variant	self-cleavage
C10G C18A G30A C37G U43A	0.01
C10G C18A G30C	0.15
C10G C18A G35A	0.03
C10G C18A G36A	0.02
C10G C18G A25G U34C	0
C10G C18G G27U U38A	0.06
C10G C18G G29A C37A C42A	0
C10G C18G U34A	0
C10G C18U A25U G44A C45A	0.04
C10G C18U A26C U32C	0.02
C10G C18U C42A	0.02
C10G C18U G21U	0.4
C10G C18U G22U U32C	0.04
C10G C18U G29A G33A U34C C37G G44U	0
C10G C18U G36A	0.02
C10G C18U U28A G30C	0.25
C10G C23A A25C G29C	0.08
C10G C23A A41U	0.02
C10G C23A C31U	0.12
C10G C23A G27C G33C C45U	0.04
C10G C23A G36U C42A G44C	0
C10G C23G A24U G33U U34C	0
C10G C23G C31A	0.02
C10G C23G C45U	0.02

Variant	self-cleavage
C10G C23G G30U C45A	0.03
C10G C23G U34A	0.03
C10G C23G U38C	0.01
C10G C23U A24C	0.06
C10G C23U A25U G30A C45U	0.02
C10G C23U G27U G29U	0.13
C10G C23U U32A	0.01
C10G C31A C42U	0.01
C10G C31G A39C	0.03
C10G C31G G35U G40U	0
C10G C31U U32A G33C U34G C45A	0.01
C10G C37A U38A	0
C10G C37G C42U	0.02
C10G C45G C46G	0.04
C10G G17A A24G A26U U34G G35C C45U	0
C10G G17A A24U G27C G29U	0.01
C10G G17A U20C C45U	0.05
C10G G17C A26G	0.02
C10G G17C G19A C37G	0.02
C10G G17C U20C C23G	0.09
C10G G17C U34G G40U	0.01
C10G G17U C23G G40U C42U C45G	0.02
C10G G17U G22A G30U	0.21
C10G G19A C37G U38A G44U	0

Variant	self-cleavage
C10G G19A G27U	0.12
C10G G19A G30A	0.23
C10G G19C A26C	0.05
C10G G19C G40A	0.01
C10G G19U C31A G40C A41C G44A	0
C10G G19U U20C	0.02
C10G G19U U20G U34A	0.08
C10G G19U U28C A41C	0.02
C10G G21A C31G	0.04
C10G G21A C37A G44C	0
C10G G21C C23U C42U U43A	0
C10G G21C C42A	0.02
C10G G21C G27A	0.03
C10G G21U A25U C45G	0
C10G G21U A41G	0.02
C10G G21U G27A G29A G30U	0.24
C10G G21U G35U A41G	0.02
C10G G21U U34G	0.07
C10G G22A A24U U32A U43A	0
C10G G22A A25U G30U C37A	0.01
C10G G22A A26U U43G	0
C10G G22A C37A	0
C10G G22A G27A	0.09
